Assay results published in PubChem BioAssay AID624296 (National Center for Advancing Translational Sciences (NCATS), 2012).
In all, about 350,000 compounds went through this assay and about 9,900 (2.8%) were called active. This list was built around the results that the source calls inconclusive (neither active nor inactive); the mix of calls is not that of the screen. Calls come from the whole dose curve; as a rule, active = well fitted activation curve with a large enough effect; inconclusive = small, poorly fitted or top-dose-only effect; inactive = no such curve, though single readings can be large or run the other way. Potencies of inconclusive entries are left out as doubtful fits.

Experiment: A quantitative high throughput screen for small molecules that induce DNA re-replication in MCF 10a normal breast cells. Note: nearly all actives have a fitted effect of over 50% in size.
Conditions: MCF 10A DNA re-replication, Hoechst nuclear intensity, 48 h; series mostly up to 46.1 µM
Potency is the fitted concentration of half-maximal effect; tags give direction and shape of the fitted curve.

Q: For `CCCCc1cc(=O)oc2cc(C)c(CN3CCCC3)c(O)c12`, which Potency is on record?
A: Its Potency is inconclusive [activator, partial curve, poor fit].

Q: For `CCC(CC)C(=O)N1c2ccc(F)cc2CCC1C` (stereo not drawn), which Potency is on record?
A: The Potency was “inactive”.

Q: For `Cc1cccc(NC(=S)Nc2ccc(Cl)c(Cl)c2)c1`, which Potency is on record?
A: Its Potency is inconclusive [activator, single point].

Q: With `COc1ccc(/C=C/C(=O)c2cc(F)ccc2OC(=O)c2ccccc2OC)cc1OC` as the compound, how does the Potency read?
A: The Potency was active: 13 µM.

Q: Which Potency does the source give for `Cc1ccc2c(CN(C)Cc3cccc(F)c3)cc(=O)oc2c1` here?
A: Its Potency is inconclusive [activator, single point].

Q: With `CC1CCCN(Cc2nc(Cc3ccccc3Cl)no2)C1` (stereo not drawn) as the compound, how does the Potency read?
A: The Potency was “inactive”.

Q: Which Potency does the source give for `COc1ccc(-c2csc(NC(=O)CCS(=O)(=O)c3ccccc3)n2)c(OC)c1` here?
A: Its Potency is inconclusive [activator, single point].

Q: Which Potency does the source give for `O=C(CN1CCCCCC1)Nc1ccc(Oc2ccccc2)cc1` here?
A: The Potency was inconclusive [activator, partial curve, poor fit].

Q: For `COc1ccc(N2CCN(C(=O)C3=NNC(=O)CC3)CC2)cc1`, which Potency is on record?
A: Its Potency is inconclusive [activator, single point].

Q: With `CCOC(=O)c1c(NC(=O)COC(=O)C2CCC2)sc(C(=O)N(C)C)c1C` as the compound, how does the Potency read?
A: The Potency was “inactive”.

Q: With `O=C(Cc1cccc(C(F)(F)F)c1)NCc1cccc(Cl)c1` as the compound, how does the Potency read?
A: The Potency was inconclusive [activator, full curve, poor fit].

Q: With `Cn1c2ccccc2c2cc(C(=O)NNS(=O)(=O)c3ccc(F)cc3)sc21` as the compound, how does the Potency read?
A: The Potency was inconclusive [activator, single point].

Q: With `N#CC1=C(N)Oc2cc(N)ccc2C1c1ccc(Cl)cc1` (stereo not drawn) as the compound, how does the Potency read?
A: Its Potency is inconclusive [activator, single point].

Q: Which Potency does the source give for `O=C(N[C@@H](Cc1ccccc1)C(=O)OCc1ccccc1)c1nc[nH]c1C(=O)N1CCN(c2ccccc2)CC1` here?
A: Its Potency is inconclusive [activator, single point].

Q: For `CCOC(=O)CC(=O)Nc1ccc(Br)cc1C(=O)O`, which Potency is on record?
A: Its Potency is “inactive”.

Q: Which Potency does the source give for `CCOC(=O)NC1(NC(C)C)Oc2ccccc2O1` here?
A: Its Potency is inconclusive [activator, full curve, poor fit].

Q: With `COc1ccc(CN2CCN(Cc3cn(C)nc3-c3ccccc3)CC2CCO)c(C)c1C` (stereo not drawn) as the compound, how does the Potency read?
A: Its Potency is inconclusive [activator, partial curve, poor fit].

Q: For `O=C(CSCc1ccc(Cl)cc1)N/N=C/c1ccc(Cl)cc1Cl`, which Potency is on record?
A: The Potency was inconclusive [activator, single point].

Q: With `Cc1ccc(-n2c(C)cc(/C=C3/SC(=O)N(CC(=O)N4CCOCC4)C3=O)c2C)nc1` as the compound, how does the Potency read?
A: Its Potency is “inactive”.

Q: For `Cc1nn(C)cc1CN(C)C(=O)c1cc2nc(-c3ccco3)cc(C(F)(F)F)n2n1`, which Potency is on record?
A: The Potency was inconclusive [activator, single point].

Q: For `Cc1nc2ccc(S(=O)(=O)Nc3ccccc3C)cc2s1`, which Potency is on record?
A: The Potency was inconclusive [activator, single point].

Q: Which Potency does the source give for `COc1ccc(NC(=S)N(CCN2CCCCC2)Cc2ccco2)cc1` here?
A: The Potency was inconclusive [activator, partial curve, poor fit].

Q: For `COc1ccc(-c2cc(C(F)(F)F)n3ncc(C(=O)N4CCc5ccccc5C4)c3n2)cc1`, which Potency is on record?
A: The Potency was inconclusive [activator, single point].

Q: For `Cc1[nH]ccc2c1[nH]c1cc(=O)ccc12`, which Potency is on record?
A: The Potency was inconclusive [activator, partial curve, poor fit].

Q: Which Potency does the source give for `CC(C)(C)c1cc(NCc2ccccn2)n2ncc(-c3ccccc3)c2n1` here?
A: Its Potency is inconclusive [activator, single point].

Q: For `O=C1C=C(c2ccc3ccccc3c2)C[C@@H](c2ccc(F)cc2)C1`, which Potency is on record?
A: The Potency was inconclusive [activator, partial curve, poor fit].

Q: For `Cc1[nH][nH]c(=O)c1C(c1ccc(O)c(Br)c1)c1c(C)[nH][nH]c1=O`, which Potency is on record?
A: Its Potency is inconclusive [activator, single point].

Q: With `COC(=O)c1ccc(C)c(NS(=O)(=O)c2ccc(OC)cc2)c1` as the compound, how does the Potency read?
A: The Potency was inconclusive [activator, full curve, poor fit].

Q: For `Cc1ccccc1OCC(O)Cn1c(SC(C)C)nc2c1c(=O)[nH]c(=O)n2C` (stereo not drawn), which Potency is on record?
A: The Potency was “inactive”.

Q: Which Potency does the source give for `COc1ccc(S(=O)(=O)Nc2cccc3c2O[C@H](CN(C)CC2CCCCC2)[C@@H](C)CN([C@H](C)CO)C3=O)cc1` here?
A: Its Potency is “inactive”.

Q: With `CCCCCC(=O)N1CC2(CC(c3cccc(NC(=O)COc4ccc(Cl)cc4)c3)=NO2)C[C@@H]1C(N)=O` (stereo partly drawn) as the compound, how does the Potency read?
A: Its Potency is inconclusive [activator, single point].

Q: Which Potency does the source give for `CCCCN1C(=O)/C(=C2\SC(N3CCOCC3)=NC2=O)c2ccccc21` here?
A: Its Potency is inconclusive [activator, single point].

Q: With `O=C(CC(Nc1ccccc1)c1ccc(F)cc1)c1ccccc1` (stereo not drawn) as the compound, how does the Potency read?
A: Its Potency is inconclusive [activator, single point].

Q: Which Potency does the source give for `COc1ccccc1NS(=O)(=O)c1ccc2oc(=S)[nH]c2c1` here?
A: Its Potency is “inactive”.

Q: For `CCOC(=O)COc1ccccc1/C=C1\NC(=O)NC1=O`, which Potency is on record?
A: Its Potency is “inactive”.

Q: Which Potency does the source give for `COc1ccc(C(=O)Nc2ccccc2N2CCOCC2)cc1Br` here?
A: Its Potency is “inactive”.

Q: Which Potency does the source give for `O=P(CCCCCCCCCP(=O)(c1ccccc1)c1ccccc1)(c1ccccc1)c1ccccc1` here?
A: The Potency was inconclusive [activator, single point].

Q: For `Cc1ccccc1S(=O)(=O)N(CC(O)CN1C(=O)NC(C)(C)C1=O)c1ccccc1` (stereo not drawn), which Potency is on record?
A: Its Potency is “inactive”.

Q: With `Cc1ccc(S(=O)(=O)N2[C@@H](c3ccc(Cl)cc3)C(C(=O)O)=CC[C@H]2c2ccc(C(C)C)cc2)cc1` as the compound, how does the Potency read?
A: Its Potency is inconclusive [activator, single point].

Q: For `COCCc1ccc(OC[C@H](O)CNC(C)C)cc1`, which Potency is on record?
A: The Potency was “inactive”.

Q: Which Potency does the source give for `Cc1ccccc1C(=O)Nc1ccnn1C1CCN(C(=O)C2CCOC2)CC1` (stereo not drawn) here?
A: Its Potency is “inactive”.

Q: For `CN1/C(=C\C(=O)c2cccc(S(=O)(=O)N3CCCCC3)c2)C(C)(C)c2ccccc21`, which Potency is on record?
A: Its Potency is inconclusive [activator, single point].

Q: With `N=c1oc2cc(O)ccc2cc1C(=O)Nc1ccc(Cl)cc1` as the compound, how does the Potency read?
A: The Potency was active: 1.64 µM.
